Measurements as given in patent US20230295324A1 (published 2023).

Target: T1, human OX40 on cells (CHO-K1/hu OX40) (human, UniProt P43489 29-277)
T1 construct: whole, on cells; Also used here for OX40 on the HEK293/OX40/NF-kb reporter cells and on human T cells in the functional assays; also called CHO-K1/OX40; human OX40 cells
T1 sequence (looked up): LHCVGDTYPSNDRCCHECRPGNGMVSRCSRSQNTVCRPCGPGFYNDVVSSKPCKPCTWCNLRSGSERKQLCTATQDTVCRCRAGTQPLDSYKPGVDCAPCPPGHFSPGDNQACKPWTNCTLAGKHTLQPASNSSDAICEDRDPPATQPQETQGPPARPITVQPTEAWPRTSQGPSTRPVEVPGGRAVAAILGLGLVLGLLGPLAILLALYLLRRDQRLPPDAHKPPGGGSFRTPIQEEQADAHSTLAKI
Assay: FACS, CHO-K1/hu OX40 cells
Experimental: This example is intended to investigate the in vitro binding activity of OX40×TAA bispecific antibodies obtained in Example 9 to human OX40. The antibody binding assay at the cellular level was performed using a CHO-K1 cell strain overexpressing human OX40 (CHO-K1/hu OX40). Briefly, CHO-K1/hu OX40 cells were digested, resuspended in an F12K complete medium, and washed with PBS, and the cell density was adjusted to 1×10⁶ cells/ml with PBS. The cells were seeded in a 96-well V-bottom plate (Corning, #3894) at 100 μL/well, followed by the addition of test antibodies diluted in a 3-fold gradient at concentrations that were 2 times the final concentrations at 100 μL/well. The cells were incubated at 4° C. for 1 h away from light. Thereafter, the cells in each well were rinsed twice with 100 μL of pre-cooled PBS, and centrifuged at 500 g at 4° C. for 5 min, and then the supernatant was discarded. […] The plate was incubated away from light at 4° C. for 30 min. The cells in each well were rinsed twice with 100 μL of pre-cooled PBS, and centrifuged at 500 g at 4° C. for 5 min, and then the supernatant was discarded. Finally, the cells in each well were resuspended in 200 μL of pre-cooled PBS, and the fluorescence signal values were read using NovoCyte flow cytometer (ACEA Biosciences).

Row | Binder | EC50 [nM] | Maximum MFI [MFI]
1 | PR004276 (bispecific antibody, human IgG1, kappa, IgG-VH tetravalent symmetric structure: PR002408 IgG (anti-B7H4) with the VH of PR002067 via linker H1_15-RT; human IgG1 Fc (L234A, L235A); also called B7H4xOX40 bispecific antibody) light: EIVMTQSPATLSVSPGERATLSCRASQSISSNLGWYQQKPGQAPRLLIYGASTRATGIPARFSGSGSGTEFTLTISSLQSEDFAVYYCQQYQSWPPLTFGGGTKVEIKRTVAAPSVFIFPPSDEQLKSGTASVVCLLNNFYPREAKVQWKVDNALQSGNSQESVTEQDSKDSTYSLSSTLTLSKADYEKHKVYACEVTHQGLSSPVTKSFNRGEC heavy: QVQLVESGGGVVQPGRSLRLSCAASGFTFRSFGMHWVRQAPGKGLEWVAVISYDASNEYYADSVKGRFIISRDNSKDTLYLQMNSLRAGDTAVYYCAKGGGLRWYFAYWGQGTLVTVSSASTKGPSVFPLAPSSKSTSGGTAALGCLVKDYFPEPVTVSWNSGALTSGVHTFPAVLQSSGLYSLSSVVTVPSSSLGTQTYICNVNHKPSNTKVDKKV[sequence of human IgG1 Fc with changes not given]EPKSSDKTHTPPPPPRTEVQLLESGGGLVQPGGSLRLSCAASGFTFSSYAMSWVRQAPGKGLEWVSAISGRGGSTFYADSVRGRFTISRDNSKNTLYLQMNSLRAEDTAMYYCVDGTTGTTDVDYWGQGTLVTVSS | 2.8 | 282000
2 | PR004277 (bispecific antibody, Fab of PR002408, VH of PR002067, L1 H1_15, L2 human IgG1 hinge (C220S); human IgG1 Fc (L234A, L235A); also called B7H4xOX40 bispecific antibody (Fab-HCAb)) chain 1: QVQLVESGGGVVQPGRSLRLSCAASGFTFRSFGMHWVRQAPGKGLEWVAVISYDASNEYYADSVKGRFIISRDNSKDTLYLQMNSLRAGDTAVYYCAKGGGLRWYFAYWGQGTLVTVSSASTKGPSVFPLAPSSKSTSGGTAALGCLVKDYFPEPVTVSWNSGALTSGVHTFPAVLQSSGLYSLSSVVTVPSSSLGTQTYICNVNHKPSNTKVDKKVEPKSC chain 2: EIVMTQSPATLSVSPGERATLSCRASQSISSNLGWYQQKPGQAPRLLIYGASTRATGIPARFSGSGSGTEFTLTISSLQSEDFAVYYCQQYQSWPPLTFGGGTKVEIKRTVAAPSVFIFPPSDEQLKSGTASVVCLLNNFYPREAKVQWKVDNALQSGNSQESVTEQDSKDSTYSLSSTLTLSKADYEKHKVYACEVTHQGLSSPVTKSFNRGECEPKSSDKTHTPPPPPEVQLLESGGGLVQPGGSLRLSCAASGFTFSSYAMSWVRQAPGKGLEWVSAISGRGGSTFYADSVRGRFTISRDNSKNTLYLQMNSLRAEDTAMYYCVDGTTGTTDVDYWGQGTLVTVSS[sequence of human IgG1 Fc with changes not given] | 3.46 | 274000
